Test results published in PubChem BioAssay AID1240 (Sanford-Burnham Center for Chemical Genomics, 2008).
About 800 (1.6%) of roughly 50,000 compounds showed an effect of 50% or more. This is one part of the list.

Target: Bcl-2-like protein 10 (Homo sapiens) (UniProt Q9HD36)
Experiment: Phenotype converters, Bcl-B/TR3 peptide binding displacement, primary biochemical FP (AID 1240);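 also: 0% = Bcl-B with tracer peptide and DMSO and 100% = tracer peptide lacking Bcl-B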
Details: GST-Bcl-B / FITC-TR3 peptide fluorescence polarization; stronger effect = higher value; compound at 3.75 mg/L

Sequence of UniProt Q9HD36 (Q9HD36 whole entry, looked up): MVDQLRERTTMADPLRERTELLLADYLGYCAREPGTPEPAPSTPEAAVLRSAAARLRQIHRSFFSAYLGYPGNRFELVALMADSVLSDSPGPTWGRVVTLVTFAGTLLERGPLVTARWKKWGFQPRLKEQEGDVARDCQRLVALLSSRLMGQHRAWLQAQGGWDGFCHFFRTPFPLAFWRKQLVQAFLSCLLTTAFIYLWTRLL

Structure (SMILES) | displacement [%]
O=C(O)CCCCCN1C(=O)C(=O)/C(=C(/O)c2ccc([N+](=O)[O-])cc2)C1c1ccc(O)cc1 (stereo not drawn) | 9.5
COc1ccc(CN2CCN(S(=O)(=O)c3ccc(OC)cc3)CC2)cc1 | 0.9
O=C(Nc1c(F)c(F)c(F)c(F)c1F)c1ccccc1F | 11.3
COc1cc([N+](=O)[O-])cc2c1NC(c1ccc(Br)cc1)C1CC=CC21 (stereo not drawn) | -10.1
CC(C)C(=O)Nc1ccc(N(C)C)cc1 | -3.1
Cc1cccc(OCC(=O)Nc2ccc(Br)cc2)c1C | 1.2
O=c1/c(=C/c2ccc(-c3ccccc3[N+](=O)[O-])o2)sc2nc3cc(Br)cnc3n12 | 10.5
O=C1NC(=S)N/C1=C/c1ccc(-c2cc(C(=O)O)ccc2Cl)o1 | 22.7
COc1ccccc1-c1nc(-c2ccc(Br)cc2)no1 | 14.7
CCOC(=O)c1cnc2cc(-c3ccc(C)cc3)[nH]n2c1=O | 7.3
COc1ccc(Cl)cc1/C=C1\C(=O)NC(=O)N(c2cc(C)cc(C)c2)C1=O | -3.4
Cc1cc(C)nc(SCC(=O)NN=C2CCCCCC2)n1 | 3.9
COc1ccc(C2Nc3ccccc3C(=O)N2c2ccc(C)cc2)cc1Cn1nnc2ccccc21 (stereo not drawn) | -2.1
O=c1[nH]c(NCCCO)nc2sc3c(c12)CCCC3 | -12.9
O=C(COc1ccc(C2CCCCC2)cc1)Nc1cc(C(=O)O)cc(C(=O)O)c1 | -17.5
CCSc1nnc(NC(=O)C2CC2c2ccccc2)s1 (stereo not drawn) | 8.2
S=c1[nH]nc(NNc2ccccc2)n1Nc1ccccc1 | 6.7
CCOC(=O)c1c(NC(=O)c2ccc(C)c([N+](=O)[O-])c2)sc(C(=O)Nc2ccccc2C(F)(F)F)c1C | -12.9
Cc1cc(OCC(=O)Nc2cccc(Cl)c2)cc(C)c1Cl | -7.2
COC(=O)C1=C(C)NC(=O)NC1c1ccc(OC(=O)c2cccs2)c(OC)c1 (stereo not drawn) | -4.5
CCOc1ccccc1/C=N/NC(=O)CSc1nc2ccccc2n1Cc1ccccc1 | 6.8
COc1cccc(C(=O)Nc2ccc(N3CCN(C(C)=O)CC3)cc2)c1 | 2.2
O=C(N/N=C/c1cccc(O)c1O)c1cccc(Cl)c1 | 5.1

Structure (SMILES) | displacement [%]
Cc1nn(C(=O)c2cccnc2)c(C)c1Sc1ccc([N+](=O)[O-])cc1 | 8.9
COc1ccccc1/C=C/C(=O)NC1CCCCC1 | -3.3
Cc1ccc(C(=O)NCc2ccc(S(N)(=O)=O)cc2)cc1C | 0.9
COC(=O)c1cccc(NC(=O)COc2ccc(Cl)cc2)c1 | 3.8
O=C1c2cccc3ccc(I)c(c23)C(=O)N1Oc1ccc([N+](=O)[O-])cc1[N+](=O)[O-] | 8.5
NS(=O)(=O)c1ccc(CNC(=S)Nc2ccccc2)cc1 | -11.9
CC(C)c1ccc(-c2cc(C(=O)N3CCCC3)c3ccccc3n2)cc1 | -6.5
O=S(=O)(Nc1cccc(Cl)c1Cl)c1ccc2ccccc2c1 | -11.2
NC(=NC(=NS(=O)(=O)c1ccccc1)c1ccccc1)SCc1ccccc1 | 10.7
Cc1ccc2[nH]c3nc(N/N=C/c4c(O)ccc5ccccc45)nnc3c2c1 | 0.1
COc1cc(NC(=O)c2cc3ccccc3o2)ccc1NC(=O)c1ccco1 | 2.5
COc1cc(N(C)C)c([N+](=O)[O-])cc1C(=O)N1CC(C)NC(C)C1 (stereo not drawn) | 7.1
COc1ccc(/C(O)=C2/C(=O)C(=O)N(CCCCCC(=O)O)C2c2ccc3c(c2)OCO3)cc1 (stereo not drawn) | 3.9
Cc1ccc(-c2ccc(/C=C3/SC(=S)NC3=O)o2)cc1Cl | 26.1
Cc1nc2ccccc2n1S(=O)(=O)c1ccc(Cl)cc1Br | -2.7
CCOC(=O)c1cccc(/C=C/N(C)C)c1[N+](=O)[O-] | 5.2
Cc1cccc(OCC2=N/C(=C\N(C)C)C(=O)O2)c1 | 30.1
O=C(Nc1cccc([N+](=O)[O-])c1)c1sc2ccccc2c1Cl | 17
COc1cc(-c2noc(-c3ccc(F)cc3)n2)cc(OC)c1OC | 12.1
COc1ccc2nc(SCC(=O)NCc3ccccc3)[nH]c2c1 | 4.5
Cc1cc(/C=N/N2C(=O)c3ccccc3C2=O)c(C)n1-c1ccc(F)cc1 | -8.8
CN1CCN(C(=O)/C(=C/c2cccc3ccccc23)NC(=O)c2ccccc2)CC1 | 4
O=C(Cc1ccc(Cl)cc1)Nc1cc(C(=O)O)cc(C(=O)O)c1 | -11.6

Structure (SMILES) | displacement [%]
COc1ccc(OCCCCOc2ccc(C)cc2C)cc1 | 9.6
Cc1ccc(S(=O)(=O)Nc2ccc3c(c2)nc(C)n3Cc2ccccc2)cc1 | 5.7
COc1ccc(C(=O)Nc2ccc(S(=O)(=O)NC(C)=O)cc2)cc1[N+](=O)[O-] | 11.6
COc1ccc(NC(=O)CN(c2ccc(C)c(Cl)c2)S(C)(=O)=O)c(OC)c1 | -0.6
Cn1cc(Cl)c(C(=O)OCC(=O)Nc2ccccc2)n1 | 15.4
Cc1sc(NC(=O)NC2CCCCC2)nc1-c1ccccc1 | -12.1
COc1cccc(NC2=C(Cl)C(=O)N(c3ccc(Cl)cc3)C2=O)c1 | -8.8
Cc1ccc(S(=O)(=O)N(Cc2ccccc2)c2ccccc2C(=O)NCc2ccco2)cc1 | 11
COc1cc(Br)c(C2C3=C(CC(C)(C)CC3=O)OC3=C2C(=O)CC(C)(C)C3)cc1OC | 8.9
CCOC(=O)c1cc(-c2ccc(C=C3C(=O)N(C)C(=O)N(C)C3=O)o2)ccc1Cl | 111
CCN(CC)C(=O)C(=O)N/N=C/c1ccc2c(c1)OCO2 | -2.9
COc1ccc(NC(=O)Nc2ccccc2)c(OC)c1 | 6.8
COc1ccc(/C(C)=N\N2CCN(Cc3ccc(C)cc3)CC2)cc1 | -6.7
O=C(NC(=S)Nc1cccc(NC(=O)c2ccco2)c1)c1ccco1 | -2.4
COc1ccc2nc(NC(=O)c3cc4c(s3)CCCC4)sc2c1 | 8.8
O=C(N/N=C/c1cc(Br)cc(Br)c1O)C(Oc1ccccc1)Oc1ccccc1 | 3.3
CCOc1ccc(C(=O)N2CCCc3ccccc32)cc1OCC | 14
O=C1NC(=O)N(c2ccccc2)C(=O)/C1=C\c1cccc(Br)c1 | -1.7
N#C/C(=C/c1ccc(O)c([N+](=O)[O-])c1)C(=O)Nc1cccc(Br)c1 | -8.5
CCCOc1cccc(C(=O)Nc2sc(C)c(-c3ccc(C)cc3)c2C(=O)OC)c1 | 4.5
C(=N\Nc1nn[nH]n1)/c1ccc(N2CCOCC2)cc1 | 12.3
COc1ccc(CNC(=O)CN(c2c(C)n(C)n(-c3ccccc3)c2=O)S(=O)(=O)c2ccccc2)cc1 | -6.2
